From publication PMC4336329 (PLoS ONE, 2015)
In all, about 310,000 compounds went through this assay and about 14,000 (4.5%) showed an effect of 50% or more. Effects have a minus sign here. Some of the results follow.

The compounds below were run against human ether-à-go-go-related gene (hERG) potassium channel (human, UniProt Q12809) (assay: primary screen, population patch clamp on CHO cells stably expressing hERG).
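Also: peak tail current of the secondary pulse compared with the same well before compound.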

Sequence of human ether-à-go-go-related gene (hERG) potassium channel (Q12809 whole entry, looked up): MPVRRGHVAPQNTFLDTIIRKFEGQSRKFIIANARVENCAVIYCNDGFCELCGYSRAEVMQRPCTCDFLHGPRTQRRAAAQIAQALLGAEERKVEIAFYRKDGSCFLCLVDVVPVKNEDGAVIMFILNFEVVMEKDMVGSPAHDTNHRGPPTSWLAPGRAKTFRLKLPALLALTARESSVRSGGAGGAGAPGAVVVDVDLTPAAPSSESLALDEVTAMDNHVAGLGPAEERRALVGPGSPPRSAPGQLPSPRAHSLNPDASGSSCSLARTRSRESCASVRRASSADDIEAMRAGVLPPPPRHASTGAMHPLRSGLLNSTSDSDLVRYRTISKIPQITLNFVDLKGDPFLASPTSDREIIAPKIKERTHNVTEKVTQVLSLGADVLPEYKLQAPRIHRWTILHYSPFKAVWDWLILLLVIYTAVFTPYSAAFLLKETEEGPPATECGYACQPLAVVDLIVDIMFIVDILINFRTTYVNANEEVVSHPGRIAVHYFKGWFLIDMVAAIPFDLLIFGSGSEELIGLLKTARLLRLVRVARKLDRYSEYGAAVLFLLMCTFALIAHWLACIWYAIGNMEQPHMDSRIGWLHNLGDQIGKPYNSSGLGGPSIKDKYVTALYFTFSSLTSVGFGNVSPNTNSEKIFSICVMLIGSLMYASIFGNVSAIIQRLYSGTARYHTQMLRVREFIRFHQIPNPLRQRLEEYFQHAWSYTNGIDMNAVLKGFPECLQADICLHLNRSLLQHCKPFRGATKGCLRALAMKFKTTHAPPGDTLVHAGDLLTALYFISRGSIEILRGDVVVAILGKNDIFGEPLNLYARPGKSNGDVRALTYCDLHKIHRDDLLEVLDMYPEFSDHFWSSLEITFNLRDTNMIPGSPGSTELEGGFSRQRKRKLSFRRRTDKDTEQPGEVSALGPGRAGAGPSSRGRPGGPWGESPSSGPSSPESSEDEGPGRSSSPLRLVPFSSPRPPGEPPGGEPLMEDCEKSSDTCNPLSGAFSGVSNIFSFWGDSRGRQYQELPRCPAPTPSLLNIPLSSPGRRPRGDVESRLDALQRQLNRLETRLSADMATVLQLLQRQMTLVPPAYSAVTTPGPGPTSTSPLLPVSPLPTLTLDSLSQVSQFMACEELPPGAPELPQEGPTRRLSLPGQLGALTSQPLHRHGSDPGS

| SMILES | hERG current change (%, negative = inhibition) at 10uM [%] |
| --- | --- |
| CN(C)c1ccc(/C=N/N(CCO)C2=NS(=O)(=O)c3ccccc32)cc1 | 21.8 |
| COc1ccc(/C=C/c2cc(C(=O)O)c3ccccc3n2)cc1 | 11.6 |
| CC(C)N(C(=O)Cn1c(SCC(=O)NC2CC2)nc2ccccc21)C(C)C | -10.5 |
| O=C(O)[C@H](Cc1ccccc1)N1Cc2ccccc2C1=O | -4.51 |
| CCOc1ccccc1N=Nc1c(C)[nH]n(-c2ccccc2)c1=O | 16.1 |
| O=C(Nc1ccccc1)c1ccsc1 | -0.506 |
| Cc1cccc(N2CCN(CC(=O)N(C)Cc3ccccc3)CC2C)c1 (stereo not drawn) | -7.75 |
| c1ccc(-n2nc3c(ccc4cnnc43)[nH]2)cc1 | -4.44 |
| O=C(O)c1ccc(Cl)c(S(=O)(=O)Nc2ccc(OCc3ccccc3)cc2)c1 | 7.79 |
| COCC(C)n1c(C)cc(C(=O)CSc2nc(C)c(C)c(C)n2)c1C (stereo not drawn) | -16.4 |
| CC(C)(C)c1ccccc1NC(=O)CN1C(=O)NC2(CCCCCC2)C1=O | 4.14 |
| O=S(=O)(c1ccccc1)N(CC1CO1)c1cc(Cl)ccc1Cl (stereo not drawn) | 14.2 |
| O=C(COc1ncnc2ccccc12)NC(=O)NCc1ccccc1 | -8.05 |
| O=C(O)c1ccc(N2C(=O)CSC2=S)cc1 | -9.23 |
| CCOC(=O)c1ccc(NNC(C)=O)c([N+](=O)[O-])c1 | 19.9 |
| O=C(N/N=C/c1c[nH]c2ccccc12)C1CC1c1ccccc1 (stereo not drawn) | -4.47 |
| CC(=O)NC(=O)NC1OC(=O)C(Cl)=C1Cl (stereo not drawn) | 3.52 |
| Cc1nc(CN(C)C(=O)c2ccccc2OC2CCN(S(C)(=O)=O)CC2)cs1 | 3.35 |
| COc1cc(OC)cc(-c2n[nH]c(=S)n2-c2ccc3c(c2)OCCO3)c1 | 18.2 |
| COc1ccc(C(C(=O)NC2CCCC2)N(Cc2ccco2)C(=O)c2snc(C(N)=O)c2N)cc1OC (stereo not drawn) | 30.1 |
| COc1ccc(C2CC(c3ccccc3)=NN2c2ccccc2)c(C(=O)O)c1OC (stereo not drawn) | 19.4 |
| O=[N+]([O-])c1ccc(C(=S)N2CCC(Cc3ccccc3)CC2)cc1 | -32.4 |
| Cc1cc(C)n2nc(C(=O)Nc3nccs3)nc2n1 | -11.8 |

| SMILES | hERG current change (%, negative = inhibition) at 10uM [%] |
| --- | --- |
| COc1ccc(C(=O)NCCCOc2cccnc2)cc1OC1CCN(C(C)=O)CC1 | 5.18 |
| Cc1ccc(CNC(=O)c2cccc3c2C(=O)c2ccc(N4CCCCC4)cc2S3(=O)=O)cc1 | -6.76 |
| CCC(C)(C(=O)Nc1ccc(OC)cc1)N(C)C(=O)Cn1nnnc1N (stereo not drawn) | 15.6 |
| COCCNC(=O)C1CCN(Cc2cccc(OCc3ccccc3)c2)CC1 | -12.2 |
| N#C/C(=C\c1ccc(C(=O)O)cc1)c1ccccn1 | 21 |
| Cc1ccc(Cn2ccnc2C(=O)Nc2ccccc2)cc1 | 6.59 |
| CCN(CC)S(=O)(=O)c1ccc(C(=O)OCC(=O)Nc2sc3c(c2C#N)CCCCC3)cc1 | 8.12 |
| O=C(c1ccco1)N1CCN(C(=O)C2CCN(S(=O)(=O)c3cccs3)CC2)CC1 | -47.7 |
| Brc1cccc(-c2nnc3sc(CNC4CCCC4)cn23)c1 | -16.2 |
| CCN(CC)C(=O)N1c2ccccc2C=Cc2ccccc21 | -10.2 |
| Cc1ccc(CNS(=O)(=O)c2ccc3c(c2)n(C)c(=O)c(=O)n3C)cc1 | -13.5 |
| COc1ccc(NC(=O)COC(=O)C23CCC(=O)N2c2ccccc2S3)cc1 (stereo not drawn) | -4.68 |
| COc1cc(NC(c2ccccc2)c2ccccc2)cc(OC)c1OC | 17.9 |
| Cn1ncc2c(N3CCC(Cc4ccccc4)CC3)ncnc21 | -21.4 |
| COCCCNC(=O)c1sc2ncnc(N3CCc4ccccc4C3)c2c1C | -23.9 |
| Cc1noc(C)c1COc1ccc(C(=O)OCC(=O)Nc2c(C)n(C)n(-c3ccccc3)c2=O)cc1 | 15.9 |
| Cc1cc(Br)cc(Cl)c1OC(=O)c1ccncc1 | -2.84 |
| Cn1c(SCC(=O)NNC(=O)Cc2ccccc2)nnc1-c1ccccc1 | 18.9 |
| CC(C)OCC(O)CS(=O)Cc1ccccc1 (stereo not drawn) | 13.7 |
| Cc1ccc(-n2nc3ccc(NC(=O)/C=C/c4ccco4)cc3n2)cc1 | 7.32 |
| CCOC(=O)CSc1nc(N)c(C#N)c(-c2ccc(OCC)cc2)c1C#N | 6.31 |
| O=C1Nc2ccccc2Oc2cc([N+](=O)[O-])ccc21 | 7.63 |
| CCOC(=O)C1CCCCN1Cc1ccc(F)cc1 (stereo not drawn) | 4.77 |

| SMILES | hERG current change (%, negative = inhibition) at 10uM [%] |
| --- | --- |
| O=c1oc2ccc(NS(=O)(=O)c3cccc4cccnc34)cc2s1 | 24.4 |
| CCC(CC)C(=O)N1CCN(c2ccccc2)CC1 | -2.08 |
| Fc1ccc(-c2nnn3c2nc(NCc2ccccc2)c2ccccc23)cc1 | 10.5 |
| O=C(Oc1ccccc1C(=S)N1CCOCC1)c1ccc([N+](=O)[O-])cc1[N+](=O)[O-] | -45.2 |
| COc1cccc(CNC(=O)C2=Cc3cccc(OC)c3OC2)c1 | 4.36 |
| CC(C)(C)NC(=O)NC(=O)COC(=O)CCCc1c[nH]c2ccccc12 | -4.44 |
| N#Cc1nc(-c2cccs2)oc1NCCN1CCOCC1 | -6.24 |
| CCCCOc1cccc(C(=O)N(Cc2cccs2)C2CCS(=O)(=O)C2)c1 (stereo not drawn) | -29.2 |
| N=C1C(=O)OCC1c1ccccc1NC(=O)CN1CCCCC1 (stereo not drawn) | -3.03 |
| CC(=O)NCCc1cc2ccc(C)cc2[nH]c1=O | 11.4 |
| C=CCn1cnc2c(c1=O)c1nc3ccccc3nc1n2-c1ccc(C)cc1 | -9.49 |
| O=C(COC(=O)CC1CCCCC1)Nc1c(Cl)cccc1Cl | 12 |
| Cc1nn(C)c(Cl)c1/C=N/OC(=O)c1ccc(F)cc1 | -17.6 |
| CCOC(=O)c1sc(=S)n(C)c1NC(=O)c1cccc(Br)c1 | 5.67 |
| CC1CCN(S(=O)(=O)N2CCC(C(=O)NCc3cccs3)CC2)CC1 | -22.9 |
| Cc1ccc(/C=N\NC(=O)C2CC(=O)N(c3ccccc3)C2)o1 (stereo not drawn) | -6.11 |
| COc1ccc(S(=O)(=O)N2CCCC(C(F)(F)F)C2)cc1 (stereo not drawn) | 10.2 |
| C[C@H](O)[C@@H](C(=O)N1CCN(C(=O)OC(C)(C)C)CC1)n1cc(CCCCNC(=O)OC(C)(C)C)nn1 | -7.14 |
| Cc1ccc(NC(=O)OCCN2CCN(S(=O)(=O)c3ccc(C)cc3)CCC2=O)cc1 | -18.5 |
| O=C(CS(=O)c1ccc(Br)cc1)N1CCOCC1 (stereo not drawn) | 1.98 |
| C(=N\Nc1cc(N2CCCCC2)ncn1)/c1ccco1 | 2.21 |
| CCOc1ccc(C(=O)Nc2nnc(C)s2)cc1OCC | -4.04 |
| Cc1ccc(C)c(CSCC(=O)NCc2cccs2)c1 | -3.29 |

| SMILES | hERG current change (%, negative = inhibition) at 10uM [%] |
| --- | --- |
| CCN(CC)S(=O)(=O)c1ccc(N=Cc2c(O)n(-c3ccccc3)c(=O)[nH]c2=O)cc1 | -5.2 |
| O=C(NCc1n[nH]c(=S)n1-c1ccccc1)c1ccco1 | 23 |
| O=C(O)c1c2c(nc3ccccc13)/C(=C/c1ccc(OC(F)F)cc1)CCC2 | 25.3 |
| COc1cc(C2C(C(C)=O)=C(O)C(=O)N2CCc2ccc(OC)c(OC)c2)ccc1O (stereo not drawn) | 24.3 |
| CCN(CC)S(=O)(=O)c1ccc(C)c(NC(=O)CN(C)C)c1 | 7.04 |
| Brc1ccc(OCCOCCN2CCOCC2)cc1 | -9 |
| CC(C)(c1cc(Br)c(O)c(Br)c1)c1cc(Br)c(O)c(Br)c1 | -12.8 |
| COc1cc(NC(=O)COc2cc3oc(=O)cc(C)c3cc2Cl)cc(OC)c1OC | 15.9 |
| O=C(NCCS(=O)c1ccc(Cl)cc1)c1cccc(Cl)c1 (stereo not drawn) | -12.2 |
| CN(C(=O)c1cccc(C#N)c1)c1nnc(-c2ccccn2)s1 | 4.41 |
| N/C(=N\OC(=O)c1cccc(Br)c1)c1ccccn1 | 21.6 |
| CN1C2CCC1/C(=C\c1ccc(F)cc1)C(=O)/C2=C/c1ccc(F)cc1 | -28.1 |
| COCCCNC(=O)/C(C#N)=C/c1ccc(OCC(=O)O)c(OC)c1 | 3.89 |
| C=CCNC(=O)Nc1ccc(F)c(Cl)c1 | 7.39 |
| O=C(CCNC(=O)c1ccccc1Cl)NCC1CCCO1 (stereo not drawn) | -13.2 |
| O=C(N/N=C/c1cccnc1)c1ccc(NC(=O)C(c2ccccc2)c2ccccc2)cc1 | -24.2 |
| COc1ccc(-c2nn(CCC#N)cc2C(=O)O)cc1 | 16.9 |
| Cc1cc(F)ccc1S(=O)(=O)NCC(c1cccnc1)N1CCc2ccccc21 (stereo not drawn) | -1.61 |
| O=C1CCC([N+](=O)[O-])C(c2cc3c(cc2Cl)OCO3)N1 (stereo not drawn) | 8.22 |
| CCC(C)c1ccccc1NC(=O)COC(=O)C1=COCCO1 (stereo not drawn) | 6.9 |
| N#C/C(=C\c1ccccc1)C(=O)N(c1ccccn1)C1CCCCC1 | -20 |
